# The source gives no read counts; variants with many changes may rest on few reads.
# B1: CPEB3 Ribozyme (parent)
# chain: UAACAGGGGGCCACAGCAGAAGCGUUCACGUCGCAGCCCCUGUCAGAUUCUGGUGAAUCUGCGAAUUCUGCUGUAUAUCUC
# Variants of: B1
# Assay: self-cleavage, relative activity (ratio to wild type); higher = more cleavage; in vitro, sequencing
# Method in brief: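 For each CPEB3 ribozyme variant, relative activity is its cleaved/total read fraction divided by the unmutated ribozyme's. Barcoded error-prone PCR libraries were transcribed by T7 RNA polymerase (5 hours, 37°C) and held in DNase I for 15 min before an EDTA stop, with cleavage occurring throughout. Template-switching reverse transcription and Illumina sequencing were used to read the RNAs. A 5-read minimum applied, and results are the mean of three batches.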
row,Variant,self-cleavage
1,C40U A65G U66C,0.14
2,C40U G70A U72A,0.19
3,C40U G73C C81U,1.29
4,C40U U41A A45C,0.18
5,C40U U41C U69A,0.18
6,C40U U43A A47G A64G U72C C79U,0.62
7,C40U U43A U58C U69C,0.13
8,C40U U43C U54C U60A U67C G70A,0.05
9,C40U U43C U60C,0.15
10,C40U U49C A65G A77G,0.1
11,C40U U49C G63U U67C A75G U78C,0.07
12,C40U U49C U72C C79U,0.22
13,C40U U51C U54C U74C A77G,0.46
14,C40U U51G U60C U67C,0.17
15,C40U U54C U72C,0.88
16,C40U U60A U74C,0.69
17,C40U U72A U80C,1.01
18,U41A A45G A47G A65G U78A,0.17
19,U41A A45G A56U A57U,0.17
20,U41A A45G A57U U60A U76C U80A,0.06
21,U41A A45G C50U U67A U74A,0.18
22,U41A A45G G70C,0.22
23,U41A A45G U49A U51A A64U,0.1
24,U41A A45G U60C,0.33

row,Variant,self-cleavage
1,U41A A45U A57G U80C,0.38
2,U41A A45U A77G,0.21
3,U41A A45U U54A A57C U72C,0.12
4,U41A A47G G61A,0.54
5,U41A A47G U54A A65G U67C U72C U80G,0.08
6,U41A A47G U58A C59A,0.14
7,U41A A56G A64G A77G,0.07
8,U41A A56G A75C,0.21
9,U41A A56G A77C,0.19
10,U41A A56G A77U,0.19
11,U41A A56G U60C U69C,0.07
12,U41A A56U U67A C71U,0.05
13,U41A A57G A64U U74C,0.06
14,U41A A57G A65G,0.23
15,U41A A57G A65G U66C,0.18
16,U41A A64G A75U,0.31
17,U41A A64U U72C,0.13
18,U41A A64U U74A,0.18
19,U41A A65U A77G,0.27
20,U41A C44G U80C,0.32
21,U41A C44U G53A,0.34
22,U41A C44U U48C U60C,0.2
23,U41A C59A A65G U69A U80A,0.06
24,U41A G42U U72A,0.22

row,Variant,self-cleavage
1,U41A G46U U80C,0.15
2,U41A G55U A75G U78C,0.35
3,U41A G61A A77G,0.18
4,U41A G63A U67C U69A U78C,0.08
5,U41A G63A U69A U78C,0.12
6,U41A U43A A45G U69A,0.14
7,U41A U43A A56C C71U,0.1
8,U41A U43A A57G,0.09
9,U41A U43A U66C,0.4
10,U41A U43C G55A,0.08
11,U41A U43C U48C U60G,0.18
12,U41A U43C U74C,0.22
13,U41A U48A U74C,0.12
14,U41A U48C C71A,0.15
15,U41A U48C C79A,0.07
16,U41A U48C U58C,0.1
17,U41A U48C U60G U72C,0.15
18,U41A U48C U67A U72A U80A,0.07
19,U41A U49A U69C,0.14
20,U41A U49C A77U U80C,0.05
21,U41A U51C A56G U67A,0.14
22,U41A U51G U54C,0.39
23,U41A U51G U72C A75U,0.1
24,U41A U54A U67C U69C A75U,0.11

row,Variant,self-cleavage
1,U41A U54C A64U G73A,0.47
2,U41A U54C U58C U60A U67A,0.13
3,U41A U54C U67C,0.12
4,U41A U58A A64G U67C,0.23
5,U41A U76A U80C,0.2
6,U41C A45G U54C A56G C59U A65C U72A,0
7,U41C A45G U60G U80C,0.43
8,U41C A45G U67C U69C,0.16
9,U41C A45G U76A,1.07
10,U41C A45U G52U,0.8
11,U41C A45U U60A U69A U76C,0.64
12,U41C A45U U69A,0.34
13,U41C A45U U72C,0.58
14,U41C A47G A65G,0.59
15,U41C A47G G55U,1.12
16,U41C A47G U48C G52A U69C,0.37
17,U41C A47G U54A U66C C79G,0.39
18,U41C A47G U54C A56G,0.32
19,U41C A47U U66C,0.08
20,U41C A56C U60A U69C,0.22
21,U41C A56C U69C,0.19
22,U41C A56G U60A U80C,0.34
23,U41C A57C U72C,0.33
24,U41C A57G A64G,0.69

row,Variant,self-cleavage
1,U41C A64G G70U,0.29
2,U41C A64G U69C U80C,0.34
3,U41C A64U U69C,0.42
4,U41C A65C U72G U80A,0.2
5,U41C A65G A77U,0.5
6,U41C A65G G73U,1.06
7,U41C A65U U67C,0.3
8,U41C A77U C79U,1.34
9,U41C C44A U51C C79U,0.23
10,U41C C50A A65G,0.17
11,U41C C59A A75G,0.28
12,U41C C59A U80A,0.32
13,U41C C68A U69A,0.32
14,U41C C79U U80C,1.14
15,U41C G42C U80C,0.4
16,U41C G42U U54C A65G,0.15
17,U41C G46U U58C,0.18
18,U41C G53A A56G,0.76
19,U41C G70C A75U U76A A77U,0.22
20,U41C U43A A64G U69C,0.28
21,U41C U43A U54C U60C,0.19
22,U41C U43A U80A,0.71
23,U41C U43C A56U,0.15
24,U41C U43C U49C U72A,0.08

row,Variant,self-cleavage
1,U41C U43C U51A A56U,0.2
2,U41C U43C U54A U67C,0.12
3,U41C U43C U76C A77C,0.31
4,U41C U48A A56G A64G,0.39
5,U41C U48A G53A,0.06
6,U41C U48C U51A,0.82
7,U41C U48C U60C U69A,0.45
8,U41C U48C U72C,0.44
9,U41C U49A A77U U80A,1.08
10,U41C U49C A56G A64U,0.27
11,U41C U49C A57G A77G U78C,0.3
12,U41C U51A A57U,0.63
13,U41C U51A U54A,1.16
14,U41C U51C C59A,0.33
15,U41C U51C G63A,0.91
16,U41C U51C U60C,0.28
17,U41C U51C U67C U80A,0.65
18,U41C U51C U76A,1.01
19,U41C U54A U69A,0.67
20,U41C U54C A77C U80C,0.49
21,U41C U54C G61A,0.42
22,U41C U54C U76C,1.07
23,U41C U54G A65U,0.11
24,U41C U58A C71A U80C,0.15

row,Variant,self-cleavage
1,U41C U58C A64G,0.3
2,U41C U58C A64U,0.39
3,U41C U58C U69C U76C,0.28
4,U41C U60A A64G,0.44
5,U41C U60A A64U,0.26
6,U41C U60A U66C,0.25
7,U41C U60G U69A,0.27
8,U41C U67G A77G,0.53
9,U41C U69A A77G,0.81
10,U41C U69C U74C U80C,0.49
11,U41C U72A A75U,1.07
12,U41C U72A C79A,1.13
13,U41C U72A U80G,1.18
14,U41C U72C U78A U80C,1.21
15,U41C U74C A75U,1.25
16,U41G A45G U48C A56G U60C,0.21
17,U41G A45U U58C U60C,0.12
18,U41G A47G U60C,0.15
19,U41G A47U U60C U72A,0.17
20,U41G A65U C81G,0.22
21,U41G G46U U72A U78C,0.07
22,U41G U51A A56U,0.36
23,U41G U58C A64G,0.14
